“And” between values parts separate entries of the source, which are not always exact repeats. Identical values can stand only once. Counter-ions that a name gives are not always drawn. ± gives the standard deviation of the averaged measurements. The full ranking holds about 3,200 compounds; the median of “nuclei count (viability) relative to DMSO” is about 99, and the lowest 2% start at about 16. The list shows a part of the results.

This assay relates to U2OS. The assay is described as follows: nuclei count (viability) relative to DMSO (% of DMSO); higher = more viable cells. As to conditions: 10 µM; 24 h. On the procedure: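 Primary image-based screen in U2OS cells: compounds at 10 uM for 24 h, then a 1 h o-propargyl-puromycin (OPP) pulse, click labelling, and high-throughput microscopy. Mean cytoplasmic OPP intensity and nuclei count were normalised to DMSO wells within each plate (DMSO = 100) and averaged over triplicate plates.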
`Cc1nc2ccc(NC(=O)Nc3ccnc4cccnc34)cc2o1`: the nuclei count was 99.6. The figure for `Oc1nc(-c2ccc(C(F)(F)F)cc2)nc2c1CSCC2` is 92.6 and 94.5. The figure for `NC(=O)N1c2ccccc2CC(=O)c2ccccc21` [Oxcarbazepine] is 99.6; for `CN(C)c1ccc(-c2nc3ncc(Cl)c(N4CCN(CC(=O)Nc5nccs5)CC4)c3[nH]2)cc1` it is 94.7; for `Clc1cccc(Nc2nnc(-c3ccccc3)c3ccccc23)c1` it is 96.3.

Consider `CC(C)Cn1cnc2c(N)nc3ccccc3c21` [Imiquimod], for which the nuclei count amounted to 96.2 ± 2. Under `CC(C)n1cnc2c(NCCc3ccc(O)cc3)nc(-c3csc4ccccc34)nc21` [StemRegenin 1] stands 95.2; under `CC(C)NC(=N)NC(=N)Nc1ccc(Cl)cc1` [Proguanil hydrochloride], 102; under `Cc1nc2c(O)cccc2c(=O)[nH]1`, 96.9.

`CCNC(=O)c1cc2c(-c3cc(OCCN4CCCC4)c(Cl)cc3Cl)nc(N)nc2s1` displayed a nuclei count of 67. The figure for `c1cc(CN2CCCNCCNCCCNCC2)ccc1CN1CCCNCCNCCCNCC1` [Plerixafor 8HCl (AMD3100 8HCl)] is 103; for `CCCCc1nc2ccn(Cc3cccs3)c(=O)c2n1Cc1ccc(-c2ccccc2-c2nn[nH]n2)cc1` it is 102. Under `Cc1cc(C#N)cc(C)c1Oc1nc(Nc2ccc(C#N)cc2)nc(N)c1Br` [Etravirine (TMC125)] stands 82.9; under `Cn1cncc1[C@@](N)(c1ccc(Cl)cc1)c1ccc2c(c1)c(-c1cccc(Cl)c1)cc(=O)n2C` [Tipifarnib (Zarnestra)], 77.4. Turning to `Cc1nnc(SCC2=C(C(=O)O)N3C(=O)[C@@H](NC(=O)Cn4cnnn4)[C@H]3SC2)s1` [Cefazolin sodium salt], the nuclei count was determined as 105. Under `O=c1[nH]c(=O)n([C@H]2C[C@H](O)[C@@H](CO)O2)cc1C(F)(F)F` [Trifluridine] stands 106. Under `Cc1cc(F)c(Nc2ncnc3cc(OCc4ccccc4)ccc23)cc1O` stands 85.2 and 99.2; under `COc1ccc2c3c1O[C@H]1C[C@@H](O)C=C[C@@]31CCN(C)C2` [Galanthamine hydrobromide], 102 ± 2.6. Under `NS(=O)(=O)c1ccc(NC(=O)Nc2ccc(F)cc2)cc1` stands 103; under `CC(=O)CC(c1ccc([N+](=O)[O-])cc1)c1c(O)c2ccccc2oc1=O` (stereo unspecified) [Acenocoumarol], 95.7. Molecule `CCCCCCCCNC(C)C(O)c1ccc(SC(C)C)cc1` (stereo unspecified) [Suloctidil] displayed a nuclei count of 99.6. The figure for `S=c1[nH]cnc2nc[nH]c12` [Mercaptopurine] is 91.9 ± 12; for `CN(Cc1ccc(C(C)(C)C)cc1)Cc1cccc2ccccc12` [Butenafine Hydrochloride] it is 96.1; for `O=C(NCCCNc1nc(Nc2cccc(NC(=O)N3CCCC3)c2)ncc1I)c1cccs1` it is 40.1 ± 3.3.

For the molecule `N=C(CC(O)COc1ccccc1-c1ccccc1)N1CCCCC1` (stereo unspecified), the nuclei count was determined as 104. The figure for `Cc1ccccc1C(=O)Nc1ccc(C(=O)N2CCCC(N(C)C)c3ccccc32)cc1` (stereo unspecified) [Mozavaptan] is 41.2; for `CCCOc1ccc(Br)cc1-c1cc(-c2ccc(Cl)cc2)[nH]c1-c1ccncc1` it is 114.

In the case of `C=C[C@@](C)(/C=C/c1ccc(O)cc1)CCC=C(C)C` [Bakuchiol], the nuclei count turned out to be 71.4. The molecule `COc1cc2c(cc1OC)[C@@H]1Cc3ccc(OC)c(OC)c3CN1CC2` [Rotundine] had a nuclei count of 99.9.

The molecule `O=C(CCCN1CCC(O)(c2ccc(Cl)cc2)CC1)c1ccc(F)cc1` [Haloperidol] gave a nuclei count of 92.

Consider `O=C(CCCN1CCC(O)(c2ccc(Cl)cc2)CC1)c1ccc(F)cc1` [Haloperidol hydrochloride], for which the nuclei count turned out to be 92. The figure for `Cc1ccc(C)c(OCCCC(C)(C)C(=O)O)c1` [Gemfibrozil] is 98.5 ± 8.9; for `O=c1[nH]c2cc(Cl)ccc2c(O)c1-c1cccc(Oc2ccccc2)c1` it is 104; for `O=C(O)C[C@H](O)C[C@H](O)/C=C/c1c(C2CC2)nc2ccccc2c1-c1ccc(F)cc1` [Pitavastatin calcium (Livalo)] it is 68.5. The figure for `O=C(Nc1ccccc1)N[C@@H]1C[C@@H](C(=O)O)Nc2cc(Cl)cc(Cl)c21` is 102; for `Cc1ccc(Sc2ccccc2N2CCNCC2)c(C)c1` it is 60.7.

`CN1CCC(CNc2ccc3ncc(-c4cccc(OC(F)(F)F)c4)n3n2)CC1` [SGI-1776 free base] displayed a nuclei count of 29.9 ± 1.6. The figure for `NCC(=O)CCC(=O)O` [5-Aminolevulinic acid HCl] is 101. The figure for `CC(C)[C@H](NS(=O)(=O)c1ccc(-c2ccc(Br)cc2)cc1)C(=O)O` is 97.3.

`CNCCC=C1c2ccccc2C=Cc2ccccc21` [Norcyclobenzaprine] came in with a nuclei count of 94.1. For the molecule `NC(=O)c1ccc[n+]([C@@H]2O[C@H](COP(=O)([O-])OP(=O)(O)OC[C@H]3O[C@@H](n4cnc5c(N)ncnc54)[C@H](O)[C@@H]3O)[C@@H](O)[C@H]2O)c1` [Nadide], the nuclei count was 94.8. As to `COC(=O)CCc1ccc(OCC(O)CNC(C)C)cc1` (stereo unspecified) [Esmolol hydrochloride], the nuclei count was 102.

Molecule `O=C(NCc1cccc(O)c1)Nc1nc(-c2ccncc2)cs1` came in with a nuclei count of 71.8.

`CN1C(C(=O)Nc2ccccn2)=C(O)c2ccccc2S1(=O)=O` [Piroxicam] returned a nuclei count of 94.7 ± 12. Under `COc1c(C)c2c(c(O)c1C/C=C(\C)CCC(=O)OCCN1CCOCC1)C(=O)OC2` [Mycophenolate mofetil (CellCept)] stands 67.6; under `COCCOC(=O)C1=C(C)NC(C)=C(C(=O)OC(C)C)C1c1cccc([N+](=O)[O-])c1` (stereo unspecified) [Nimodipine], 104 ± 7.4; under `CC1(C)S[C@@H]2[C@H](NC(=O)[C@H](N)c3ccccc3)C(=O)N2[C@H]1C(=O)OC1OC(=O)c2ccccc21` (stereo partly specified) [Talampicillin hydrochloride], 99.8.

For `NC(=O)OCC(O)COc1ccc(Cl)cc1` (stereo unspecified) [Chlorphensin carbamate], the nuclei count was 105. Under `O=C(O)c1ccc(-n2nc(-c3ccccc3O)nc2-c2ccccc2O)cc1` [Deferasirox (Exjade)] stands 104; under `C[C@H]1COC2(CCN(c3nc(=O)c4cc(C(F)(F)F)cc([N+](=O)[O-])c4s3)CC2)O1` (racemic) [BTZ043 racemate], 101; under `C[C@]12CCC(=O)C=C1C=C[C@@H]1[C@@H]2CC[C@@]2(C)[C@H]1CC[C@@]21CCC(=O)O1` [Canrenone], 107. Under `CC1(C)[C@@H](O)CC[C@]2(C)[C@H]3C(=O)C=C4[C@@H]5C[C@@](C)(C(=O)O)CC[C@]5(C)CC[C@@]4(C)[C@]3(C)CC[C@@H]12` [Enoxolone (Glycyrrhetin)] stands 103; under `CC1(C)CC(=O)c2c(C(F)(F)F)nn(-c3ccc(C(N)=O)c(N[C@H]4CC[C@H](OC(=O)CN)CC4)c3)c2C1`, 52.7; under `Cc1cnc(-c2cnc(NCCNc3ccc(C#N)cn3)nc2-c2ccc(Cl)cc2Cl)[nH]1`, 85.4 and 98.8. The figure for `Cc1c(NC(C)C)c(=O)n(-c2ccccc2)n1C` [Isopyrin hydrochloride] is 107; for `CCCNC(C)C(=O)Nc1c(C)csc1C(=O)OC` (stereo unspecified) [Articaine hydrochloride] it is 108. In the case of `NCCc1cc[nH]n1` [Betazole hydrochloride], the nuclei count was found to be 96.4.

In the case of `COc1cc(N)c(Cl)cc1C(=O)CCC1CCN(CCNS(C)(=O)=O)CC1`, the nuclei count was 99.5. Under `CNCc1ccc(-c2[nH]c3cc(F)cc4c3c2CCNC4=O)cc1` stands 72.7. Under `CC(=O)C1=C(O)C=C2Oc3c(C(C)=O)c(O)c(C)c(O)c3C2(C)C1=O` (single isomer, unassigned; (+)) [(+)-Usniacin (D-Usnic acid)] stands 104. The figure for `CCNC(=O)c1noc(-c2cc(C(C)C)c(O)cc2O)c1-c1ccc(CN2CCOCC2)cc1` is 51.9; for `COc1cccc(N(C)C(=S)Oc2ccc3c(c2)CCCC3)n1` [Liranaftate] it is 101; for `Clc1ccc(CCCOCCCN2CCCCC2)cc1` it is 106. `Nc1nc(=O)c2c([nH]1)NC[C@H](CNc1ccc(C(=O)N[C@@H](CCC(=O)O)C(=O)O)cc1)N2C=O` [Calcium levofolinate (Calcium Folinate)] returned a nuclei count of 94.2. The figure for `COc1ccc(CCc2nc3cc(-c4c(C)noc4C)ccc3n2C[C@H](C)N2CCOCC2)cc1Cl` is 98.9.

In the case of `CC(C)C[C@H](NC(=O)N[C@H](C(=O)N[C@@H](CCC(N)=O)C(=O)N[C@@H](C)C=O)[C@@H]1CCNC(=N)N1)C(=O)O` [Elastatinal], the nuclei count came out at 101. As for `CC(C[N+](C)(C)C)OC(N)=O` (stereo unspecified) [Bethanechol chloride], the nuclei count was found to be 110. Under `Cc1ccc2nc(NCCN)c3ncc(C)n3c2c1` stands 39.2.

On to `Cc1c(NC(=O)OC[C@@H]2COCCN2)cn2ncnc(Nc3ccc4c(cnn4Cc4cccc(F)c4)c3)c12`, for which the nuclei count turned out to be 100.

The molecule `NCCC(O)(P(=O)(O)O)P(=O)(O)O` [Pamidronate Disodium] registered a nuclei count of 94.6. In turn, `CC(C)Oc1cc(Nc2nc(N[C@@H](C)c3ccc(F)cn3)ncc2Cl)n[nH]1` displayed a nuclei count of 52.7. The figure for `C[C@H](NC[C@H](O)CP(=O)(O)Cc1ccccc1)c1ccc(Cl)c(Cl)c1` is 88; for `COc1ccc([C@@H]2Sc3ccccc3N(CCN(C)C)C(=O)[C@@H]2OC(C)=O)cc1` [Diltiazem hydrochloride] it is 96.4 ± 9.4.

The molecule `O=C1NC(=O)c2cc(Nc3ccc(F)cc3)c(Nc3ccc(F)cc3)cc21` yielded a nuclei count of 116.

`Cc1cn([C@H]2C[C@H](N=[N+]=[N-])[C@@H](CO)O2)c(=O)[nH]c1=O` [Zidovudine, AZT] had a nuclei count of 100. The figure for `C=CCc1ccc(O)c(-c2cc(CC=C)ccc2O)c1` [Magnolol] is 106. The figure for `COc1ccc2c(c1)C(=O)N(CCc1ccc(S(=O)(=O)NC(=O)NC3CCCCC3)cc1)C(=O)C2(C)C` [Gliquidone] is 108; for `CN(C)CCN(Cc1ccc(Cl)cc1)c1ccccn1` [Chloropyramine hydrochloride] it is 105; for `CC(C)c1cccc(=O)c(O)c1` [Hinokitiol] it is 87.3. Under `NS(=O)(=O)Cc1noc2ccccc12` [Zonisamide] stands 107 ± 8.5. On to `CC(=N)NCc1cccc(CN)c1` [1400W dihydrochloride], for which the nuclei count was determined as 99.8.

The values are drawn from the supplement of paper PMC8183993.
